The whole screen tested about 410,000 compounds, of which about 5,000 (1.2%) were called active. The shares of active, inactive and inconclusive entries below differ from those in the screen. The call rests on the fitted dose curve; in most records, active means well fitted inhibition curve with a large enough effect; inconclusive means small, poorly fitted or top-dose-only effect; inactive means no such curve, though single readings can be large or run the other way. Potencies of inconclusive entries are doubtful fits and often do not repeat.
Assay: qHTS for Inhibitors of TGF-b; further: nearly all actives have a fitted effect of over 65% in size
Details: HepG2 CAGA-GFP TGF-b/SMAD3 reporter, GFP fluorescence, 18 h, TGF-beta stimulated, 500 pg/mL final; series mostly up to 46.1 µM
In short: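 TGF-beta reporter screen: HEPG2 CAGA-GFP, 1% FBS, 500 pg/mL TGF-beta final, 18 h; per-cell GFP summed per well; curves fitted and categorized by class.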
Potency means the concentration at half of the fitted maximal effect; tags describe the fitted curve by direction and shape.

Structure (SMILES) | Potency
CN1CCC(NCCC(c2ccc(F)cc2)c2ccc(Cl)cc2)CC1 (centres undefined) | inconclusive: 22.4 µM [inhibitor, single point]
Cc1cc(C)c(C(=O)OCC(=O)NC(=O)c2ccccc2)c(C)c1 | inconclusive: 0.794 µM [inhibitor, partial curve, poor fit]
O=C(N/C(=C\c1ccccc1)C(=O)N1CCOCC1)c1cccc(Br)c1 | inconclusive: 35.5 µM [inhibitor, single point]
CC1(C)CC(CC(=O)Nc2nccs2)(c2ccccc2)CCO1 (centres undefined) | inactive
C[C@H](NC(=O)c1ccco1)C(=O)N1CCN(c2ccc(C(F)(F)F)cn2)CC1 | inactive
Cc1ccc(-c2csc(NC(=O)CSc3nc4ccccc4o3)n2)cc1 | inconclusive: 17.8 µM [inhibitor, single point]
CCCC(C)C(=O)OCC(=O)NCc1ccc(OC)c(OC)c1 (centres undefined) | inconclusive: 5.62 µM [inhibitor, single point]
Cn1nc(Oc2nc(N3CCOCC3)nc(N3CCOCC3)n2)ccc1=O | inconclusive: 20 µM [inhibitor, partial curve, poor fit]
Nc1cc2c(cc1Br)-c1c(C(=O)O)cccc1C2O (centres undefined) | inactive
COc1ccc(S(=O)(=O)N2CCOC2CNC(=O)C(=O)NCCN2CCOCC2)cc1 (centres undefined) | inactive
O=C(c1ccco1)N1CCN(C(=O)c2ccc(CS(=O)c3cccc(Cl)c3)o2)CC1 (centres undefined) | inactive
Cc1cccc(NC(=O)c2oc3ccccc3c2NC(=O)Cc2coc3cc(C)cc(C)c23)c1 | inconclusive: 0.562 µM [inhibitor, full curve, poor fit]
Cc1ccc(S(=O)(=O)N(C)CC(=O)Nc2cccc3c2CCCC3)cc1 | inconclusive: 22.4 µM [inhibitor, single point]
Cc1cc(N2CCN(c3ccc(F)cc3)CC2)n2cnnc2n1 | inconclusive: 35.5 µM [inhibitor, single point]
COc1ccc(NC(=O)Cn2ccn(-c3ccc(C)c(C)c3)c(=O)c2=O)cc1Cl | inactive
O=C(Nc1ccc(Cl)cc1F)c1cc(S(=O)(=O)NC2CCCCCC2)ccc1F | inconclusive: 3.16 µM [inhibitor, full curve]
COc1ccc(NC(=O)CN(C)C(=O)Cc2coc3cc(C)c(C)cc23)cc1 | inconclusive: 6.31 µM [inhibitor, single point]
Cc1ccccc1OCC(=O)N1N=C(c2cccnc2)CC1(O)C(F)(F)F (centres undefined) | inactive
O=C(NCC1OCCc2ccccc21)c1cc(COc2ccc(F)cc2Cl)on1 (centres undefined) | inconclusive: 5.62 µM [inhibitor, single point]
O=C(CSc1nc(=O)n(Cc2ccccn2)c2c1CCC2)Nc1cccc(Cl)c1 | inconclusive: 7.08 µM [inhibitor, partial curve, poor fit]
COc1ccc(C(=O)NCc2nnc(SCC(=O)NO)n2Cc2ccccc2)cc1 | inconclusive: 3.16 µM [inhibitor, single point]
Cc1ccc(O)c(CC(C)C)n1 | inconclusive: 6.31 µM [inhibitor, single point]

Structure (SMILES) | Potency
CC(/C=C1\SC(=O)N(CC(=O)Nc2cccc(O)c2)C1=O)=C\c1ccccc1 | inconclusive: 35.5 µM [inhibitor, partial curve, poor fit]
Fc1cccc(/C=N/NC(=S)Nc2ccccc2Cl)c1 | inconclusive: 1.12 µM [inhibitor, full curve, poor fit]
COc1ccc(CNC(=O)CNS(=O)(=O)c2ccc(Cl)cc2)cc1 | inactive
CN(C)c1cccc(Nc2ccc(-c3ccc(OC(F)(F)F)cc3)cn2)c1 | inactive
Cc1oc2ncnc(N3CCOCC3)c2c1C(=O)Nc1ccc(Br)cc1F | inactive
Cc1ccc(Oc2ncc(-c3ccc(Cl)cc3)cn2)cc1 | inconclusive: 0.891 µM [inhibitor, full curve, poor fit]
Cn1c(N/N=C/c2cccs2)cc(=O)n(C)c1=O | inconclusive: 8.91 µM [inhibitor, partial curve, poor fit]
OC(c1ccccc1)c1nc2ccccc2n1Cc1c(F)cccc1Cl (centres undefined) | inconclusive: 25.1 µM [inhibitor, single point]
Cc1ccc(-c2csc3ncnc(N4CCN(C(=O)c5ccccc5)CC4)c23)cc1 | inconclusive: 20 µM [inhibitor, single point]
Cc1ccc(S(=O)(=O)Oc2ccccc2/C=N/NC(=O)c2c(Cl)cnn2C)cc1 | inactive
O=S(=O)(N=C1C=CC(=NS(=O)(=O)c2ccccc2)c2ccccc21)c1ccccc1 | inconclusive: 35.5 µM [inhibitor, single point]
Cc1ccc2c(CC(=O)Nc3ccc(S(=O)(=O)N4CCCC(C)C4)cc3)coc2c1 (centres undefined) | inconclusive: 2.51 µM [inhibitor, full curve, poor fit]
COc1ccc(CCC(=O)N/N=C/c2ccc3c(c2)OCO3)cc1 | inconclusive: 6.31 µM [inhibitor, partial curve, poor fit]
COc1cc(C(=O)NCCNc2nc3cc(C)ccc3cc2C#N)cc(OC)c1OC | inactive
COC(=O)c1sccc1NC(=S)N1CCN(c2cccc(C)c2C)CC1 | inconclusive: 0.112 µM [inhibitor, full curve, poor fit]
Cc1ccc(S(=O)(=O)Nc2nc3ccccc3nc2N2CCN(c3ccccc3F)CC2)cc1 | inconclusive: 17.8 µM [inhibitor, single point]
c1ccc2c(c1)nc(Nc1ccc(N3CCCCC3)cc1)c1nncn12 | inconclusive: 15.8 µM [inhibitor, partial curve, poor fit]
Cc1ccc(SCCC(=O)Nc2c(C)n(C)n(-c3ccccc3)c2=O)cc1 | inconclusive: 11.2 µM [inhibitor, partial curve, poor fit]
O=C(O)c1ccc2c(c1)N(Cc1ccc(F)cc1)C(=O)c1ccccc1S2=O (centres undefined) | inactive
C=CCN(CC=C)C(=O)C(=O)c1cc(C)n(-c2ccc([N+](=O)[O-])cc2)c1C | inconclusive: 35.5 µM [inhibitor, single point]
Cc1ccc(C(=O)/C=C\C(=O)c2ccc(C)cc2)cc1 | inconclusive: 35.5 µM [inhibitor, single point]
C=CC[C@@H](CC(=O)N[C@@H](CO)Cc1ccccc1)C(=O)NC[C@@H](OC(=O)[C@@H](CC=C)Cc1ccc(F)cc1)c1ccccc1 | inconclusive: 35.5 µM [inhibitor, single point]

Structure (SMILES) | Potency
O=C(Cn1ncc2c3ccccc3n(Cc3ccccc3)c2c1=O)NCCCN1CCCCC1 | inconclusive: 35.5 µM [inhibitor, single point]
COc1ccc(-c2cccc(-c3cc(=O)oc4cc(OC)c(OC)c(OC)c34)c2)cc1 | inactive
Cc1ccc(SCc2nc3ccccc3n2CC(=O)Nc2ccccc2)cc1 | inconclusive: 15.8 µM [inhibitor, single point]
O=C(CCSc1nc(-c2ccco2)cc(C(F)(F)F)n1)Nc1ccc2c(c1)OCO2 | inconclusive: 1.26 µM [inhibitor, partial curve, poor fit]
c1ccc2c(c1)oc1c(Nc3ccc4c(c3)OCO4)ncnc12 | inactive
CC1Cc2ccccc2N1C(=O)CSc1nnc(CNc2ccccc2)o1 (centres undefined) | inactive
COc1ccc(CCN2C(=O)CN(C3CCCCCC3)C(=O)C2c2ccc(Cl)cc2)cc1OC (centres undefined) | inconclusive: 22.4 µM [inhibitor, single point]
COc1cc(/C=N/NC(N)=S)ccc1OCC(=O)Nc1ccc(C)c(C)c1 | inconclusive: 35.5 µM [inhibitor, single point]
Cc1ccc(OCC(=O)NNC(=O)CSc2nnc(-c3ccc(C)cc3)n2C)cc1 | inconclusive: 1.78 µM [inhibitor, full curve]
CC(=O)N1CCc2cc(S(=O)(=O)NC(Cc3ccccc3)C(=O)Nc3cc(C)cc(C)c3)ccc21 (centres undefined) | inconclusive: 12.6 µM [inhibitor, single point]
Cc1c(Cl)ccc2c1NC(=O)C21NC(CCC(N)=O)[C@H]2C(=O)N(c3ccc(Cl)cc3)C(=O)[C@H]21 (some centres undefined) | inconclusive: 35.5 µM [inhibitor, single point]
COc1ccc(N(C(=O)Cn2nnc(-c3ccc(Cl)cc3)n2)C(C(=O)NCC2CCCO2)c2ccncc2)cc1 (centres undefined) | inconclusive: 35.5 µM [inhibitor, single point]
COc1ccccc1N1CCN(Cc2nc(-c3cc(OC)c(OC)c(OC)c3)no2)CC1 | inconclusive: 12.6 µM [inhibitor, partial curve, poor fit]
N#Cc1cccc(C(=O)Nc2cccc(S(=O)(=O)N3CCCC3)c2)c1 | inactive
COc1ccccc1C1C(C(=O)Nc2ccccc2)=C(C)Nc2nc(-c3ccccc3)nn21 (centres undefined) | inconclusive: 20 µM [inhibitor, single point]
COc1cccc(NC(=O)CN(C)C(=O)CNC(=O)c2ccc3ccccc3c2)c1 | inconclusive: 0.794 µM [inhibitor, full curve, poor fit]
Cc1ccc2c(c1)C1CN(C)CCC1N2S(=O)(=O)c1ccc(Oc2ccc([N+](=O)[O-])cc2)cc1 (centres undefined) | inconclusive: 22.4 µM [inhibitor, single point]
O=C(CNCCC1=CCCCC1)Nc1ccccc1N1CCCCCC1 | inconclusive: 17.8 µM [inhibitor, partial curve, poor fit]
COc1ccc(NC(=O)CSCC(=O)N(C)CCOc2ccc(Cl)cc2)cc1 | inactive
O=C(Nc1ccc(N2C(=O)C3C4C=CC(C4)C3C2=O)cc1)Nc1nnc(C(F)(F)F)s1 (centres undefined) | inconclusive: 11.2 µM [inhibitor, partial curve, poor fit]
